No constants are given. Whether binding was seen depends on the method and setting. Binding seen in cells or lysates may run through a third protein. Some results given as binding are weak or reduced against the parent protein; the word gives no strength. Where a sequence is shown, tags or fusion partners need not be part of it.
Key:
[1] = molecular target: T1, GST-Bag-1(202-269) peptide (UniProt Q99933); assay: pull-down; GST-fused Bag-1 proteins or Bag-1 peptides (5-25 µg) on glutathione-agarose beads, incubated with 400 µg of 22Rv.1 cell lysate; Western blot with anti-GRP78/BiP and anti-GST; only the target purified
T1 sequence: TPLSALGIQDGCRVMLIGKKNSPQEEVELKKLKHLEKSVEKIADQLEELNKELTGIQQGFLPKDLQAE

Protein sequences, listed by entry. Tags and fused reporters are not part of them. Lines headed by an entry give the natural chain unless they say otherwise; changes in a name come on top. Chains listed by the source or under a name are the forms on record and can include a tag or linker. Residues count along the entry.
UniProt P11021: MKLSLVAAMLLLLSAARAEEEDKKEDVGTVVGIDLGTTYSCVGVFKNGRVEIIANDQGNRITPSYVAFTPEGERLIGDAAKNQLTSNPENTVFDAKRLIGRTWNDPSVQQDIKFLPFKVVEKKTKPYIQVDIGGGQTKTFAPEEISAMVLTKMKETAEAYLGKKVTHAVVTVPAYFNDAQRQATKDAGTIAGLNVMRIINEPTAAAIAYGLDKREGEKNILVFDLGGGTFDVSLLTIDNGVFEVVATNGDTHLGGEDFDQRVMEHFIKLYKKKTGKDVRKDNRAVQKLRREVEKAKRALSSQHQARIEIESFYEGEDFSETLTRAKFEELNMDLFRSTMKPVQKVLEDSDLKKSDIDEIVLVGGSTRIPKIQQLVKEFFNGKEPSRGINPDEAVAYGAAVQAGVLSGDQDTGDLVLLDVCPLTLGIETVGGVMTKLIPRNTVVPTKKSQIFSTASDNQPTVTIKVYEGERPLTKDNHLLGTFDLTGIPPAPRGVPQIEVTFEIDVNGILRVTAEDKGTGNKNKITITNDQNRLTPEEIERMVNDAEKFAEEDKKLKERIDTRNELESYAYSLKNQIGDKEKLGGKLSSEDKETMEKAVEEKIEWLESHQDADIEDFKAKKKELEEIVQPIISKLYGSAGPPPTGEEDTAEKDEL
GST-fused GRP78-SBD (GRP78 409-651): residues 409-651 of P11021

[2] = molecular target: T2, GST-C-term peptide (Bag-1L 241-269) (UniProt Q99933); assay: as above
T2 sequence: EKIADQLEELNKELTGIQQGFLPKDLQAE

[3] = molecular target: T3, GST-N-term peptide (Bag-1L 202-241) (UniProt Q99933); assay: as above
T3 sequence: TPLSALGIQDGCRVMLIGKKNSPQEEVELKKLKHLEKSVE

GST-fused Bag-1L = molecular target: T4, GST-fused Bag-1L (UniProt Q99933); assay: as above
T4 sequence: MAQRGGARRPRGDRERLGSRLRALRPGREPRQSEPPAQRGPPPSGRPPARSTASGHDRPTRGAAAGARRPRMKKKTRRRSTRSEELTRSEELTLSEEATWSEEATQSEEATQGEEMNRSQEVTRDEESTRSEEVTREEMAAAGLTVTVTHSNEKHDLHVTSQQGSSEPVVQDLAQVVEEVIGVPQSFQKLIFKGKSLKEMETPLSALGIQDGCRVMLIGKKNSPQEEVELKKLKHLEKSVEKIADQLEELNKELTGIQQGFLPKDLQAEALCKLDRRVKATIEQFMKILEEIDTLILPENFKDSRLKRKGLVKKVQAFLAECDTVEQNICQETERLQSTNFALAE

[4] = molecular target: T5, GST-ΔUbi peptide (Bag-1L 220-269) (UniProt Q99933); assay: as above
T5 sequence: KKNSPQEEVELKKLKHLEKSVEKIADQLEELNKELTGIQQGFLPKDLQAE

[5] = molecular target: T6, HA-tagged Bag-1 peptide (Bag-1L 202-269) (UniProt Q99933); assay: co-IP; HEK 293 cells transfected with HA-tagged Bag-1 peptide, treated with DSP cross-linker; legend: immunoprecipitated with anti-HA or IgG, blotted with anti-GRP78/BiP (methods: the reverse)
T6 sequence: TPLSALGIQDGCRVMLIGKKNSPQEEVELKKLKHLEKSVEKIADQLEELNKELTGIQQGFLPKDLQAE

[6] = molecular target: GST-fused GRP78-SBD (GRP78 409-651) (UniProt P11021); assay: pull-down; 10 µg GST-fused GRP78 full length, ATPase domain or SBD, incubated with lysate (100-500 µg) of HEK-293 cells transfected with HA-tagged Bag-1 constructs; Western blot with HA antibody; only the target purified

Molecule: GRP78/BiP (glucose regulated protein GRP78), endogenous in 22Rv.1 prostate cancer cells (from UniProt P11021 19-654)
- binding [1]: binds
- binding [2]: no binding
- binding [3]: binds
- binding (GST-fused Bag-1L): binds
- binding [4]: no binding

Molecule: GRP78/BiP, endogenous in HEK-293 cells (from UniProt P11021 19-654)
- binding [5]: binds

Molecule: TPLSALGIQDGCRVMLIGKKNSPQEEVELKKLKHLEKSVE (peptide, UniProt Q99933-1 202-241) [HA-tagged N-ter-Bag-1 peptide (Bag-1L 202-241)]
- binding [6]: binds

B1: HA-tagged Bag-1 peptide (Bag-1L 202-269) (peptide, UniProt Q99933-1 202-269)
chain: TPLSALGIQDGCRVMLIGKKNSPQEEVELKKLKHLEKSVEKIADQLEELNKELTGIQQGFLPKDLQAE
- binding [6]: binds

Reference: publication PMC3462190, “A Peptidic Unconjugated GRP78/BiP Ligand Modulates the Unfolded Protein Response and Induces Prostate Cancer Cell Death” (PLoS ONE, 2012)
